Assay results published in article PMC6919601, “Identification of Plasmodium dipeptidyl aminopeptidase allosteric inhibitors by high throughput screening” (PLoS ONE, 2019).
Where “and” joins values, the source holds several entries; their conditions need not be identical. Equal values may be shown once. In all, about 110,000 compounds went through this assay and about 230 (0.21%) showed an effect of 50% or more. Some of the results follow.

These molecules were tested against DPAP1 (Plasmodium falciparum, UniProt Q8IIJ9) (assay: primary screen, percent inhibition; read by cleavage of a fluorogenic dipeptide substrate; higher = more effect of the substance).
Chain of DPAP1 (Q8IIJ9 whole entry, looked up): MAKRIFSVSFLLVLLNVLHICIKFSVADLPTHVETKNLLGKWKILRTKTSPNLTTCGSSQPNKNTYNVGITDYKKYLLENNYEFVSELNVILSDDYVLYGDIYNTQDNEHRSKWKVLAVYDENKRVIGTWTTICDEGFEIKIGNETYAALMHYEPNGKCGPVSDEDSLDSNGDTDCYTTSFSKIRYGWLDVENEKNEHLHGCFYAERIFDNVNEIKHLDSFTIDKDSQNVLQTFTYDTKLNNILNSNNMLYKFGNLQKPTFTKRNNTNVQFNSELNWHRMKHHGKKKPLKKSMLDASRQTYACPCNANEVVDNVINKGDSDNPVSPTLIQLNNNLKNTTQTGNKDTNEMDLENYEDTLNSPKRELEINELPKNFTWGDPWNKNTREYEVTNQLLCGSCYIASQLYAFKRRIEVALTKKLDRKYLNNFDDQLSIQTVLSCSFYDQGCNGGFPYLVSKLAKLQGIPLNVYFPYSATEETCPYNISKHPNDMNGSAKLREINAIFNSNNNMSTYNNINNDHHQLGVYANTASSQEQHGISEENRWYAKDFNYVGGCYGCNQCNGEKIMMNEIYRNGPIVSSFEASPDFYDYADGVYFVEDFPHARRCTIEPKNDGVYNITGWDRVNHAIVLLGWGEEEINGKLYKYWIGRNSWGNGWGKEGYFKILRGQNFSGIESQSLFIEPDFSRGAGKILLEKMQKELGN
Design: species or system P. falciparum D10 trophozoite lysates; single well
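Further: 30 min substrate incubation versus DMSO and 10 µM JCP410 controls.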

| Compound | % Inhibition @ 10 uM |
| --- | --- |
| COc1ccc(-c2cc(C(F)(F)F)nc(S(=O)(=O)CCC(=O)Nc3cc(C)on3)n2)cc1 | 44.2% |
| CCCCOC(=O)C1=C(C)NC(=O)NC1c1cc(Cl)cc(Cl)c1OC (centres unmarked) | -2.87% |
| COc1ccc(NC(=O)CN(C)S(=O)(=O)c2ccc(Cl)cc2)c(OC)c1 | -3.45% |
| CC1CN(C(=O)c2ccc(COc3ccc(C(C)C)cc3)o2)CC(C)O1 (centres unmarked) | 0.413% |
| CC(C)OP(=O)(OC(C)C)C(Nc1ccccc1)c1ccccc1O (centres unmarked) | 0.937% |
| C=C(C)CN1CCN(c2cc(C)c(C#N)c3nc4ccccc4n23)CC1 | -1.93% |
| COc1ccc(N2CCN(C(=O)CN(C3CCCCC3)S(C)(=O)=O)CC2)cc1 | 1.17% |
| COCCCNC(=O)CNS(=O)(=O)c1ccc2nc(C)sc2c1 | -2.45% |
| c1coc(CCC2=NCCn3cccc32)c1 | 3.16% |
| CCN(CC)CCCNC(=O)c1ccc(C)cc1 | 0.214% |
| Cc1ccsc1CN(CCCN(C)C)CCCN(C)C | -1.5% |
| Cc1cc(OCC(=O)Nc2ccc(O)cc2C(=O)O)cc(C)c1Cl | -1.82% |
| COc1ccc(OC)c2c(C)cc(N3CCN(c4cc(C)ccc4C)CC3)nc12 | -7.5% |
| CCOC(=O)C1CCN(C2CCN(Cc3ccccc3)CC2)CC1 | -2.95% |
| CCN(CC)c1ccc(CN2CCCC(O)C2)cc1 (centres unmarked) | 0.472% |
| COC(=O)c1cc(S(=O)(=O)N(C)C2CCCCC2)c[nH]1 | 9.77% |
| Cc1ccc(-n2ncc(C(=O)Nc3nccs3)c2C2CCN(C(=O)OC(C)(C)C)CC2)cc1 | 1.58% |
| COCCN1C(=O)c2ccccc2C(C(=O)Nc2ccccn2)C1c1cn(C)c2ccccc12 (centres unmarked) | 2.97% |
| C=C(C)C1CC=C(C)C(O)(CSc2nccn2C)C1 (centres unmarked) | 4.01% |
| N#C/C(=C\c1c(Oc2ccccc2Cl)nc2ccccn2c1=O)C(=O)NC1CCS(=O)(=O)C1 (centres unmarked) | -8.55% |
| Cc1ccccc1/C=C/c1nn2c(-c3cccnc3)nnc2s1 | -1.31% |
| COC(=O)CCC(=O)c1cc(C(C)(C)C)sc1C(C)(C)C | -3.55% |
| Nc1ccccc1C(=O)N1CCN(c2cccc(Cl)c2)CC1 | -0.318% |
| COc1ccc(NC(=O)c2cccc3ccccc23)cc1OC | 3.53% |
| Cc1[nH]c2ccccc2c1CCNC(=O)COc1ccc(F)cc1 | 1.93% |

| Compound | % Inhibition @ 10 uM |
| --- | --- |
| CCc1nn(CC(=O)NCc2ccco2)c(=O)c2cc3ccccc3n12 | -3.79% |
| COc1ccc(Cl)cc1N(CC(=O)Nc1cc(C)ccc1C)S(C)(=O)=O | 1.92% and 2.08% |
| CCOc1c(Br)cc(C2C(C(=O)OC)=CN(C(C)C)C=C2C(=O)OC)cc1OC | 6.48% |
| Clc1cccc(-c2nn3cnnc3s2)c1 | 2.29% |
| Cc1nc2c(=O)oc3ccccc3c2o1 | -4.47% |
| CCC(C(=O)N1CCCCC1)n1c2ccccc2c2cnnc(O)c21 (centres unmarked) | -0.281% |
| C=CCOc1ccc(C2c3c(oc4ccc(C)cc4c3=O)C(=O)N2CCCN(C)C)cc1OCC (centres unmarked) | -2.91% |
| O=C(NCc1ccccc1)N1CCC2(CC1)Oc1ccccc1C(=O)N2Cc1ccc(F)cc1 | -4.68% |
| COc1cccc(OC)c1C(=O)n1nnc2ccccc21 | -1.03% |
| CN(C(=O)Cn1c(=O)n(CC(=O)NCCc2ccccc2)c(=O)c2sccc21)C1CCCCC1 | -2.47% |
| Cc1cc([N+](=O)[O-])ccc1NC(=O)c1ccc([N+](=O)[O-])cc1 | -5.65% |
| Cn1c(=O)c2c(nc(Sc3ncn(Cc4ccccc4Br)n3)n2C)n(C)c1=O | -2.54% |
| O=C1c2ccccc2C(Nc2cccnc2)N1Cc1ccccc1Cl (centres unmarked) | -2.83% |
| O=C(O)C1CCCN1C(=O)c1cccc2ccccc12 (centres unmarked) | 4.22% |
| OC1=C2C(=Nc3ccccc3NC2c2cccnc2)CC(c2ccccc2Cl)C1 (centres unmarked) | 3.92% |
| CC(=O)N1c2ccccc2N=C2CC(C)(C)CC(O)=C2C1c1ccc2c(c1)OCO2 (centres unmarked) | -5.07% |
| O=C(NC1=NCCS1)c1cccc(NC(=O)c2ccco2)c1 | -16% |
| C=CC[n+]1ccc(COC(=O)Nc2ccc(Cl)c(Cl)c2)cc1 | 1.02% |
| O=C1CC(N2CCN(c3ccccn3)CC2)C(=O)N1CCc1ccccc1 (centres unmarked) | 1.76% |
| CC(=O)Nc1ccc(S(=O)(=O)N2CCC(Cc3ccccc3)CC2)cc1 | -0.712% |
| CCOC(=O)C1=CN(Cc2ccc(F)cc2)C=C(C(=O)OCC)C1c1ccc(C)s1 | -1.48% |
| COc1cccc(S(=O)(=O)NCc2ccc(C(=O)NCc3ccccn3)cc2)c1 | -3.37% |
| O=C(NC(CCc1nc2ccccc2[nH]1)C(=O)O)c1ccccc1 (centres unmarked) | -6.68% |
| N#CCNC(=O)[C@H](CC1CCCCC1)NC(=O)c1cc2ccccc2s1 | -1.83% |
| Cc1onc(-c2ccccc2)c1C(=O)N(Cc1ccccc1)Cc1ccccc1 | 3.94% |

| Compound | % Inhibition @ 10 uM |
| --- | --- |
| CC(C)CC(NS(=O)(=O)c1ccc2nc(O)c(O)nc2c1)C(=O)O (centres unmarked) | 4.96% |
| CC(=O)Nc1ccccc1C(=O)Nc1ccc(C)cc1 | -1.62% |
| CCN1CCC(N(C)C2CCCCC2)CC1 | -9.95% |
| Cc1sc(NC(=O)c2cccc(Cn3cc(Br)cn3)c2)nc1-c1ccccc1 | -3.13% |
| CCOC(=O)c1c(N)n(-c2cccc(S(N)(=O)=O)c2)c2nc3ccccc3nc12 | 3.71% |
| Cc1nc2ccc(C(=O)N3CCSCC3)cc2s1 | -1.27% |
| O=C(Nc1cccnc1Cl)c1cc(-c2ccc3c(c2)OCO3)on1 | -0.591% |
| CCN1CCN(C(=O)c2cnn(-c3ccccc3Cl)c2NC(C)=O)CC1 | 0.727% |
| COc1ccc(C(=O)N2CC(C)CC(C)C2)cc1OC (centres unmarked) | -8.33% |
| O=C(Nc1ccc(Br)cc1)c1cc(Cl)cc(Cl)c1O | 2.73% |
| CC1CN(C2=NC(=O)/C(=C/c3ccc(Cl)c(Cl)c3)S2)CC(C)O1 (centres unmarked) | -2.14% |
| O=C(CSCc1cnn(-c2ccccc2)c1-n1cccc1)N1CCN(C2CCCCC2)CC1 | 2.27% |
| c1ccc(CNc2nc(N3CCOCC3)nc(N3CCOCC3)n2)cc1 | -2.51% |
| CCc1cccc(-n2nnc(-c3nsc(NC(=O)c4cc(OC)cc(OC)c4)n3)c2C)c1 | 1.61% |
| Cc1ccc(C)c(OCC(=O)Nc2ccc(S(=O)(=O)N3CCOCC3)cc2)c1 | -3.43% |
| Cc1nn(Cc2ccccc2)c(C)c1/C=C1\Sc2ccccc2C1=O | -9.33% |
| N#CSCC(=O)N1c2ccccc2Sc2ccc(C(F)(F)F)cc21 | 10.1% |
| CC(CNC(=O)C(C)n1c2ccccc2c2cnnc(O)c21)c1ccccc1 (centres unmarked) | -2% |
| O=C1CSC(c2ccc3c(c2)OCO3)c2c(-c3ccccc3)nn(-c3ccccc3)c2N1 (centres unmarked) | -3.28% |
| O=C(c1ccccc1)N1CCN(C2CCC(c3ccccc3)CC2)CC1 (centres unmarked) | 2.05% |
| COC(=O)C1=CN(C(C)C)C=C(C(=O)OC)C1c1cc(OC)ccc1OC | 1.86% |
| Cc1cc(C)cc(NS(=O)(=O)c2cc(Cl)ccc2Cl)c1 | 0.526% |
| CCc1ccc(OCC(=O)N2CCOCC2)cc1 | 1.84% |
| CCOc1ccc(OCc2ccc(C(=O)N3N=C(C(F)F)CC3(O)C(F)F)o2)cc1 (centres unmarked) | 1.87% |
| CCn1c(SCC(=O)Nc2cccc(F)c2)nc2c1c(=O)n(C)c(=O)n2C | -1.84% |

| Compound | % Inhibition @ 10 uM |
| --- | --- |
| Cc1cc(=O)oc2cc(OCc3ccc(F)cc3)c(Cl)cc12 | 3.06% |
| CCOc1ccc(CSc2nc(C)cc(C)n2)cc1-n1nc2ccccc2n1 | 0.776% |
| Cc1cc(S(=O)(=O)N2CCC(c3nnc(-c4ccccc4C)o3)CC2)ccc1F | 0.66% |
| COc1cc(C2C(C(C)=O)=C(O)C(=O)N2c2ccc(Br)cc2)ccc1O (centres unmarked) | 6.79% |
| CC(NC(=O)/C=C/C(=O)O)c1ccccc1 (centres unmarked) | 0.968% and -1.03% |
| CC1(C)CC(=O)C2=C(C1)N=C(S)C(C#N)C2c1ccccc1[N+](=O)[O-] (centres unmarked) | 20% |
| Cc1c(C(=O)NCCCc2ccccc2)oc2ccc3c(c12)C(=O)CC(C)(C)O3 | 1.72% |
| CN1C(C)(C)CC(=NOC(=O)c2ccccc2)CC1(C)C | 0.685% |
| COc1ccc(N2CCN(S(=O)(=O)c3cccc(C)c3)CC2)cc1 | -5.51% |
| O=C(O)CN(CC(=O)O)S(=O)(=O)c1ccccc1 | 2.06% |
| CCOc1cc(C2c3c(oc4ccccc4c3=O)C(=O)N2c2nncs2)ccc1OCCC(C)C (centres unmarked) | 2.1% |
| COc1ccc(/C=C2\SC(=S)N(c3ccc([N+](=O)[O-])cc3)C2=O)cc1O | 4.52% |
| CC(C)CC(NC(N)=O)c1ccccc1 (centres unmarked) | -5.11% |
| COC(=O)c1cn(-c2ccccc2)nc1-c1cccnc1 | -5.15% |
| CCc1ccc(C(=O)CC2(O)C(=O)N(CCCC#N)c3ccccc32)cc1 (centres unmarked) | -2.75% |
| CN1CCC=C(Cc2nnc(O)c3ccccc23)C1 | 2.73% |
| N#CCNC(=O)[C@H](CS(=O)(=O)Cc1ccccc1)NC(=O)c1ccc2ccccc2c1 | -1.5% |
| O=C(Nc1ccc(-c2nc3ccccc3o2)cc1)c1cncc(Br)c1 | 21.3% |
| N#CC1=C(N)N2CCSC2=NC1(C(F)(F)F)C(F)(F)F | -3.53% |
| CCOc1ccc2nc(NC(=O)C(Cc3ccccc3)n3cccc3)sc2c1 (centres unmarked) | -4.21% |
| CCOc1ccc(OCc2ccc(C(=O)Nc3ccc(Cl)cn3)o2)cc1 | -0.822% |
| O=C(O)c1ccc2c(c1)C(=O)N(c1cccc(N3C(=O)c4ccc(C(=O)O)cc4C3=O)c1)C2=O | 4.8% |
| COc1ccc(NC(=O)Cc2ccccc2)c(OC)c1 | 0.135% |
